In all, about 390,000 compounds went through this assay and about 17,000 (4.4%) were called active. Inconclusive means that the source gave no clear call. Such entries were picked first, then a sample of the others. Calls follow the shape of the dose curve; as a rule, active = well fitted inhibition curve with a large enough effect; inconclusive = small, poorly fitted or top-dose-only effect; inactive = no such curve, though single readings can be large or run the other way. A potency beside an inconclusive call is a rough fit, not a confirmed value.
These compounds were tested against Lysine-specific demethylase 4A (Homo sapiens) (UniProt O75164) (assay: qHTS Assay for Inhibitors of JMJD2A-Tudor Domain). Details: AlphaScreen JMJD2A-Tudor / H3K4me3 peptide binding; activity change, negative = inhibition: at 114 µM (top of the series).
Chain of UniProt O75164 (O75164 whole entry, looked up, the tested form may be a part): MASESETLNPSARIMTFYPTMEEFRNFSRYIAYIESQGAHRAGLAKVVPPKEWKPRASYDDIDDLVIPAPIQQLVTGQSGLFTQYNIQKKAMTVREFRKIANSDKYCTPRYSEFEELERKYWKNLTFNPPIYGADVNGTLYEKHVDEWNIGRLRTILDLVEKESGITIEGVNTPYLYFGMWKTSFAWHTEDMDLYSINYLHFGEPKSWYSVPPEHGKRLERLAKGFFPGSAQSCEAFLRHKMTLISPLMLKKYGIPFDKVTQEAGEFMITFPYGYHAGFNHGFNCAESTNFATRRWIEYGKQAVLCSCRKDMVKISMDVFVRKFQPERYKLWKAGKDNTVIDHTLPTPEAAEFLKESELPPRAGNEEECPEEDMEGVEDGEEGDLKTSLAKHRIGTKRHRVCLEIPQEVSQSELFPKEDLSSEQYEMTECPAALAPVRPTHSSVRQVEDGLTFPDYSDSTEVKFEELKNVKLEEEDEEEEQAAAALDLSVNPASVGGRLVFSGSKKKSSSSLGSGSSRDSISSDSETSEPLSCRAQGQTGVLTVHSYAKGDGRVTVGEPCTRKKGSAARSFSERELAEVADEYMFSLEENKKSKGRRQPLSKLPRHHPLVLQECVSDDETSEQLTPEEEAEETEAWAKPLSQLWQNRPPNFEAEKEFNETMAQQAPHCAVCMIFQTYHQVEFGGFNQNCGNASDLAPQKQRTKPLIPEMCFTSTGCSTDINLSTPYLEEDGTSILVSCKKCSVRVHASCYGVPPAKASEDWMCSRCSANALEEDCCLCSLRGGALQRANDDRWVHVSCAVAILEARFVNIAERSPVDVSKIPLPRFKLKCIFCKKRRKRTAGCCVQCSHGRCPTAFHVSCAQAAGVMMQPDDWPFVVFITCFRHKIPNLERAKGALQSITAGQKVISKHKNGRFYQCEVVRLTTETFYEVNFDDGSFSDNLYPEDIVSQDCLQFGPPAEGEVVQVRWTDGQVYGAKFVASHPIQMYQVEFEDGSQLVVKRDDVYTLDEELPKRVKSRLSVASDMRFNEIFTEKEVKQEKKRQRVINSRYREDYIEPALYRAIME
% is scaled to controls: 0 for no effect and ±100 for the full control effect; potency is read from the fitted curve at half-maximal effect; tags tell the direction and shape of the fitted curve.
Also: nearly all actives have a fitted effect of over 50% in size.

| SMILES | Potency | activity change, negative = inhibition |
| --- | --- | --- |
| C[C@]12C=CC(=O)C=C1CC[C@@H]1C2=CC[C@]2(C)[C@@H](C(=O)CN3CCN(c4cc(N5CCCC5)nc(N5CCCC5)n4)CC3)CC[C@@H]12 | inconclusive: 56.2 µM [inhibitor, partial curve] |  |
| Cc1ccc(C(=O)N[C@@H](C)CN2C3=NC[C@H](Cc4ccccc4)N3C[C@H]2Cc2ccc(O)cc2)cc1Br | inconclusive: 89.1 µM [inhibitor, partial curve] |  |
| CC/C(=N\Nc1cccc2ccccc12)c1c(O)[nH]c(=O)[nH]c1=O | active: 79.4 µM |  |
| Cc1cc(-c2n[nH]c(=S)n2CC(C)C)cs1 | active: 5.62 µM |  |
| c1ccc(P(c2ccccc2)c2ccccn2)cc1 | inconclusive: 70.8 µM [inhibitor, single point] |  |
| CCOc1ccc(N2C(=O)NC(=O)/C(=C/c3cnc(SC)nc3)C2=O)cc1 | inconclusive: 25.1 µM [inhibitor, full curve] |  |
| C=CCN1C(=O)NC(=O)/C(=C\c2ccc(-c3ccccc3[N+](=O)[O-])o2)C1=O | inconclusive: 44.7 µM [inhibitor, partial curve] |  |
| CN1CCc2nc(SC(C(=O)O)c3ccccc3)c(C#N)c(-c3cccs3)c2C1 (stereo not given) | inconclusive: 10 µM [inhibitor, single point] |  |
| O=c1[nH]c(=O)n(CCC2=CCCCC2)c(O)c1/C=N/Nc1ccccc1 |  | inactive: -31.1% |
| O=C(O)COc1ccc(/C=C2/SC(=S)N(Cc3ccccc3)C2=O)cc1 | inconclusive: 25.1 µM [inhibitor, full curve] |  |
| Cc1ccnc(-n2c(C)nc3ccccc3c2=O)c1 | inconclusive: 17.8 µM [inhibitor, partial curve] |  |
| Cn1nc(-c2ccc(OCC(=O)N3CCN(Cc4ccccc4)CC3)cc2)c2ccccc2c1=O | inconclusive: 79.4 µM [inhibitor, partial curve] |  |
| CCOC(=O)c1ccc(N=C(CC)c2c(O)n(C)c(=O)n(C)c2=O)cc1 | inconclusive: 89.1 µM [inhibitor, single point] |  |
| CN1[C@@H]2CC[C@H]1CC(OC1c3ccccc3CCc3ccccc31)C2 (stereo not given in full) | active: 79.4 µM |  |
| CN1C(=O)N(C)C(=O)C2(Cc3cc(NC(=O)c4ccc(F)cc4)ccc3N3CCCC32)C1=O (stereo not given) | inconclusive: 17.8 µM [inhibitor, single point] |  |
| CN(C)c1ccc(Cc2ccc(N(C)C)cc2)cc1 | active: 25.1 µM |  |
| Cc1cc(-c2ccc(N)c(C)c2)ccc1N | inconclusive: 50.1 µM [inhibitor, partial curve] |  |
| CC(=NCCN1CCOCC1)c1c(O)n(Cc2ccccc2)c(=O)[nH]c1=O | inconclusive: 100 µM [inhibitor, single point] |  |
| Cc1cc(C=C2C(=O)NC(=S)NC2=O)c(C)n1-c1ccc2c(c1)OCO2 | inconclusive: 44.7 µM [inhibitor, partial curve] |  |
| CN(C)c1ccc(CCN2CCOCC2)cc1 | inconclusive: 56.2 µM [inhibitor, partial curve] |  |
| CCN1CCN(Cc2nnnn2C(C)(C)C)CC1 | inconclusive: 79.4 µM [inhibitor, single point] |  |
| C=Cc1ccc(Cn2c(C(=O)O)c(C=O)c3ccccc32)cc1 | inconclusive: 10 µM [inhibitor, full curve, poor fit] |  |
| Cn1c(=O)c2c(nc(N/N=C/c3c(O)n(C4CCCCC4)c(=S)[nH]c3=O)n2C)n(C)c1=O | active: 79.4 µM |  |
| CCc1ccc(N2C(=O)NC(=O)/C(=C\c3cccn3CCOc3ccc(C(C)C)cc3)C2=O)cc1 | inconclusive: 100 µM [inhibitor, single point] |  |

| SMILES | Potency | activity change, negative = inhibition |
| --- | --- | --- |
| C[N+](C)(C)CC1CCCC(C[N+](C)(C)C)C1=O (stereo not given) | inconclusive: 28.2 µM [inhibitor, single point] |  |
| COc1cc(Br)c(CNCCc2ccc3c(c2)OCO3)cc1OC | active: 25.1 µM |  |
| C(#CCN1CCOCC1)COCC#Cc1ccccc1 | inconclusive: 56.2 µM [inhibitor, partial curve] |  |
| CN(C)c1ccc(C=C2C(=O)NC(=S)NC2=O)cc1 | active: 50.1 µM |  |
| Cc1c(CCC(=O)N2CCCCC2)c(=O)oc2cc3occ(C(C)(C)C)c3cc12 | inconclusive: 12.6 µM [inhibitor, full curve, poor fit] |  |
| O=C(COc1ccc(Cl)cc1)N1CCN(Cc2ccc([N+](=O)[O-])cc2)CC1 | active: 11.2 µM |  |
| COc1ccc(CNCCc2c[nH]c3ccccc23)c(OC)c1C | active: 5.62 µM |  |
| NC(N)=N/N=C/c1ccc(N(c2ccccc2)c2ccccc2)cc1 | inconclusive: 70.8 µM [inhibitor, single point] |  |
| CC(Cc1ccccc1Sc1ccc(O)cc1)N(C)C (stereo not given) |  | inactive: -19.7% |
| COc1ccc(C2SCC(=O)Nc3c2c(=O)[nH]n3C2CCCCCC2)cc1 (stereo not given) |  | inactive: -15.3% |
| Oc1cc2c(cc1CN1CCN(c3ccccc3F)CC1)OCO2 | active: 39.8 µM |  |
| Oc1ccc(CCN2CCCCC2)cc1 |  | inactive: 0% |
| CCCC(=O)Nc1ccc(N2CCN(CC)CC2)c(Cl)c1 |  | inactive: -4.72% [at 57.1 µM] |
| CCOC(=O)CCCc1cc[c]([Sb](=[O])([OH])[OH])cc1 | active: 0.708 µM |  |
| CCOc1cc(CN2CCN(C(=O)Cc3ccccc3)CC2)ccc1OC | active: 28.2 µM |  |
| Cc1ccc(N2C(=O)NC(=O)/C(=C\c3cnc(-c4ccccc4)nc3)C2=O)cc1 | inconclusive: 70.8 µM [inhibitor, single point] |  |
| O=C(c1ccc(CS(=O)(=O)c2ccccc2)o1)N1CCC2(CC1)OCCO2 | inconclusive: 79.4 µM [inhibitor, partial curve] |  |
| O=c1[nH]c(=S)n(C2CC2)c(O)c1C=NCCN1CCOCC1 |  | inactive: -13.2% |
| Cc1c(C=C2C(=O)NC(=O)NC2=O)c(=O)n(-c2ccccc2)n1C | inconclusive: 100 µM [inhibitor, single point] |  |
| O=C1CCCN1c1ccc(S(=O)(=O)O)cc1 (tested in a mixture with another compound) |  | inactive: -12.9% |
| CCCN1CCc2cc(O)cc3c2[C@H]1Cc1ccc(O)c(O)c1-3 | active: 12.6 µM |  |
| O=C1NC(=S)NC(=O)C1Cc1ccccc1 | active: 89.1 µM |  |
| COc1cc2c(cc1OC)-c1c(OC)c(OC)cc3c1[C@H](C2)[N+](C)(C)CC3 | inconclusive: 56.2 µM [inhibitor, partial curve] |  |
| COc1ccc2[nH]c(C)c(CCNCc3cn(C)c4ccccc34)c2c1 | active: 3.16 µM |  |

| SMILES | Potency | activity change, negative = inhibition |
| --- | --- | --- |
| C#CCOCCOCCOCCNc1nc(N2CCN(C(=O)CCCCCCCCCCNC(=O)[C@H]([C@@H](C)CC)n3cc(CCCCN=C(N)N)nn3)CC2)nc(N2CCN(C(=O)CCCCCCCCCCNC(=O)[C@H](CO)n3cc(CCCCCN)nn3)CC2)n1 | active: 56.2 µM |  |
| O=C1NC(=S)NC(=O)C1=Cc1ccc(OCc2ccccc2)cc1 | active: 79.4 µM |  |
| Cc1cccc(N2C(=O)NC(=O)/C(=C\c3cnc(-c4ccccc4)nc3)C2=O)c1 | inconclusive: 89.1 µM [inhibitor, single point] |  |
| CCOc1ccc(NCc2cccn2-c2nnc(N3CCC(C(=O)NC(C)c4ccccc4)CC3)s2)cc1 (stereo not given) | inconclusive: 20 µM [inhibitor, full curve] |  |
| c1ccc2c(CN3CCN(C4CCCCC4)CC3)c[nH]c2c1 | inconclusive: 39.8 µM [inhibitor, partial curve] |  |
| CCCCCCC(=O)N/N=C/c1c(O)n(CCCC)c(=S)[nH]c1=O |  | inactive: -24.1% |
| COc1cc(C=C2C(=O)NC(=O)NC2=O)ccc1OCc1ccc([N+](=O)[O-])cc1 | active: 35.5 µM |  |
| Cc1ccc(-c2cc(-c3ccc(C)cc3)[n+](-c3ccccc3)c(-c3ccc(C)cc3)c2)cc1 | inconclusive: 89.1 µM [inhibitor, partial curve] |  |
| O=c1c2ccccc2nc(-c2ccco2)n1-c1ccc(Br)cc1 |  | inactive: -2.78% |
| O=c1oc(Cl)c(Cl)c2ccccc12 | inconclusive: 89.1 µM [inhibitor, single point] |  |
| O=c1c2ccccc2nc(CSc2ncnc3nc[nH]c23)n1-c1ccccc1Cl | inconclusive: 89.1 µM [inhibitor, single point] |  |
| CCOc1cc2c(cc1OCC)-n1cccc1C(c1cccc(F)c1)NC2 (stereo not given) | inconclusive: 44.7 µM [inhibitor, partial curve] |  |
| COc1ccccc1CN1CCN(C(=O)Cc2ccccc2)CC1 | active: 2.51 µM |  |
| CCCCC12CN3CC(C)(CN(C1)C3c1ccccn1)C2=O (stereo not given) | active: 25.1 µM |  |
| CCN(CC)C(=O)[C@H]1C[C@H](CC(=O)NCC23CC4CC(CC(C4)C2)C3)C(=O)N2CCc3c([nH]c4cc(-c5ccco5)ccc34)[C@]12C | inconclusive: 17.8 µM [inhibitor, full curve] |  |
| O=[N+]([O-])c1ccc(C2C3C(c4ccccc4)=NC4(CCCCC4)N32)cc1 (stereo not given) | inconclusive: 44.7 µM [inhibitor, partial curve] |  |
| Cc1cccc(C)c1OCc1n[nH]c(=S)n1N | active: 17.8 µM |  |
| O=c1c2ccccc2nc(/C=C/c2cccnc2)n1Cc1ccccc1 | active: 22.4 µM |  |
| Cc1ccccc1N1C(=O)NC(=O)/C(=C\c2ccc3c(c2)CCCN3Cc2ccccc2)C1=O | active: 50.1 µM |  |
| COc1ccc(-n2c(O)c(/C=C3\C=Nc4ccc(Br)cc43)c(=O)[nH]c2=O)c(OC)c1 | inconclusive: 15.8 µM [inhibitor, full curve, poor fit] |  |
| O=Cc1cn(Cc2ccccc2[N+](=O)[O-])c2ccccc12 | inconclusive: 100 µM [inhibitor, partial curve, poor fit] |  |
| COc1ccc(N2CCN(CCCNC(=O)c3cnn(-c4ccc(F)cc4)c3-n3cccc3)CC2)cc1 | active: 44.7 µM |  |
